The campaign covered roughly 340,000 compounds. About 530 (0.16%) were called active. This list was built around the results that the source calls inconclusive (neither active nor inactive); the mix of calls is not that of the screen. Rule as the data show it: active = activity change below about -80%; inconclusive = between about -30% and that limit; inactive = weaker than that.
Assay: Small Molecules that selectively kill Giardia lamblia: qHTS;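 also: parasites exposed to compound for two days anaerobically before the ATP read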
Conditions: Giardia lamblia trophozoite viability; at 7.66 µM; stronger effect = lower value
Procedure, shortened: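 Trophozoite viability was measured as ATP-dependent luminescence, read 15-30 min after reagent addition. Before that, parasites at 100 cells/well were exposed to compounds for 48 h, anaerobically, at 37 deg C.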
% is scaled to controls: 0 for no effect and ±100 for the full control effect.

SMILES | activity change
O=c1c(O)c(-c2ccc(O)c(O)c2)oc2cc(O)ccc12 | inactive: 0.844%
Cc1cccc(Sc2c(C=O)c3ccccc3n2C)c1 | inconclusive: -31.7% [inhibitor]
CCC(C)NC(=O)CCc1c(C)nc2c(c(C)nn2-c2ccccc2)c1C (stereo not drawn) | inactive: 10.1%
COc1nn(C(C)C(=O)N2N=C(C(F)F)CC2(O)C(F)F)cc1[N+](=O)[O-] (stereo not drawn) | active: -81.6%
COc1ccc(NC(=O)COc2ccc(Br)cc2)c(OC)c1 | inconclusive: -39.1% [inhibitor]
NC(=O)N/N=C/c1cccc(C(F)(F)F)c1 | inconclusive: -30.8% [inhibitor]
O=C(CSc1ccsc1[N+](=O)[O-])Nc1cc(F)ccc1F | inconclusive: -46.2% [inhibitor]
CC(=O)Nc1ccc(NC(=O)c2ccc(Cl)c(S(=O)(=O)N3CCc4ccccc43)c2)cc1 | inactive: 8.6%
Nc1nc(NCCCN2CCOCC2)nc(Nc2ccccc2F)c1[N+](=O)[O-] | inactive: -10.3%
C=CCc1cc(OC)ccc1OCCN1CC(C)OC(C)C1 (stereo not drawn) | inconclusive: -32.8% [inhibitor]
COc1ccc(CN2C(=O)[C@@H]3C(c4ccc(F)cc4)=NO[C@@H]3C2=O)cc1 | inactive: -8.18%
Cn1cccc1CNC(=S)Nc1ccccc1Cl | inactive: -13.2%
COc1ccc(/C=N/OCC(=O)NC(c2ccccc2)c2ccccc2)cc1OC | inconclusive: -36.7% [inhibitor]
Cc1nc2sccn2c(=O)c1S(=O)(=O)N1CCN(c2ccccc2)CC1 | inconclusive: -33.7% [inhibitor]
CCn1nc(NC(=O)c2ccncc2)c2cc3ccc(C)cc3nc21 | inactive: -7.24%
COc1cc2c(cc1OC)C(c1ccccc1OC(C)C)CC(=O)N2 (stereo not drawn) | inconclusive: -35.3% [inhibitor]
COc1ccc(N2CS(=O)CC2=O)cc1 (stereo not drawn) | inconclusive: -30.2% [inhibitor]
N#Cc1cnc(SCC(=O)Nc2ccccc2C(F)(F)F)nc1N | inconclusive: -33.7% [inhibitor]
N#Cc1c(NCc2ccccc2)ccnc1Cl | inactive: -21.6%
COc1ccc(NC(=O)COc2ccc(N(C)S(=O)(=O)c3ccc(Cl)cc3)cc2)cc1OC | inactive: -23.6%
COc1ccc(OC)c(-c2csc(NC(=O)c3ccc4c(c3)OCO4)n2)c1 | inactive: -7.52%
CC(C)(C)C(=O)Nc1ccc(NC(=O)c2ccco2)nc1 | active: -94%
Cc1ccc(S(=O)(=O)N2[C@@H](c3ccc(Cl)cc3)C(C(=O)O)=C[C@H]2CC2CCCC2)cc1 | inconclusive: -48.6% [inhibitor]
O=C(CNC(=O)c1ccccc1Br)N/N=C/c1cc(Br)ccc1O | inconclusive: -32.3% [inhibitor]
CC1(C)Cc2c(sc3c2c2ncnn2c2nnc(SCC(=O)NCc4ccco4)n32)CO1 | inconclusive: -30.7% [inhibitor]
COc1cccc(CN=c2c([N+](=O)[O-])nn(-c3ccccc3C)n2O)c1 | active: -109%
O=[N+]([O-])c1ccccc1S(=O)(=O)Oc1ccc(C(=S)N2CCOCC2)cc1 | inconclusive: -41.8% [inhibitor]

SMILES | activity change
CC(C)(C)C(=O)Nc1ccc(-c2cn3ccsc3n2)cc1 | active: -96.7%
COc1ccc2c(c1OC)C(=O)N1N=C(c3ccc(O)cc3)CC21 (stereo not drawn) | inconclusive: -34.2% [inhibitor]
O=C(Cn1cnc2ccccc2c1=O)N1CCN(Cc2ccc3c(c2)OCO3)CC1 | inactive: -12.6%
O=C1CCCN1CCCN=c1c([N+](=O)[O-])nn(-c2ccc(Cl)cc2)n1O | inconclusive: -68.6% [inhibitor]
Cc1csc(NC(=O)c2ccc(N3CCCC3=O)cc2)n1 | inconclusive: -53.4% [inhibitor]
O=C(c1cc(-c2ccc(F)cc2)on1)N1CCCC1 | inconclusive: -35.5% [inhibitor]
O=C(N/N=C/c1ccc(COc2ccc(Br)cc2)o1)c1ccc2c(c1)OCO2 | inactive: -27.5%
Cc1ccc(S(=O)(=O)n2c(N)nc3ccccc32)cc1 | inactive: -14.4%
O=C(NCCCNC1CCCCC1)c1ccc(/C=N/O)nc1 | inconclusive: -35.5% [inhibitor]
O=C(NCCc1ccco1)c1cc(COc2cccc(C(F)(F)F)c2)on1 | inconclusive: -36% [inhibitor]
O=[N+]([O-])c1ccc(/C=C2\CCC(C3=CCCC3)=C2N2CCOCC2)cc1 | inactive: -2.92%
Cc1ccc(-n2nc(CC#N)c(C#N)c2N)cc1 | inconclusive: -33.2% [inhibitor]
COc1ccc(-c2nc3ccccn3c2Nc2ccccc2C)cc1 | inactive: 2.86%
COc1ccc(-c2cc3ccc(O)cc3oc2=O)cc1 | inconclusive: -33.7% [inhibitor]
CCC1C(c2ccccc2)=CCC(C(=O)O)C1C (stereo not drawn) | inactive: 26.9%
COC(=O)N1c2ccccc2CCc2ccccc21 | inactive: -2.13%
COc1ccccc1CN(C)C(=O)COC(=O)c1c(C)noc1C | inconclusive: -39.6% [inhibitor]
O=C(c1cnn2ccccc12)N1CCN(C2CCCCC2)CC1 | inconclusive: -34.1% [inhibitor]
Cc1ccc(NC(=S)NNC(=O)Cn2nc([N+](=O)[O-])cc2C)cc1 | inconclusive: -30.7% [inhibitor]
O=C1c2cc([N+](=O)[O-])cc3cc([N+](=O)[O-])cc(c23)C(=O)N1c1ccccn1 | inconclusive: -46.3% [inhibitor]
CCCOc1ccc(-c2nnn(CC(=O)c3c[nH]c4ccccc34)n2)cc1 | inactive: -21.9%
Cc1ccc(-c2c[n+](CC(=O)N3c4ccccc4Sc4ccccc43)c3n2CCC3)cc1 | inconclusive: -38.3% [inhibitor]
O=C(NCc1ccccc1)C(=O)Nc1nc(C23CC4CC(CC(C4)C2)C3)cs1 | inactive: 12.6%
COc1cc(/C=N/Nc2ccc(C(F)(F)F)cn2)cc(OC)c1O | inactive: 11.1%
Cc1cc(OCC(=O)Nc2ncn[nH]2)ccc1Cl | inconclusive: -30.3% [inhibitor]
CN(C)C(=O)c1nc2ccc(Cl)cn2c1CN1CCCC(OCc2cccnc2)C1 (stereo not drawn) | inconclusive: -37.7% [inhibitor]
